Source: paper PMC3468502
Results are given in words; binding and its absence hold for the method and conditions named. For some of these results: Binding seen in cells or lysates may run through a third protein. Some entries that bind do so weakly or less than the wild type.

By UniProt entry, the sequences of proteins in these tests, tags left out.
UniProt P23769: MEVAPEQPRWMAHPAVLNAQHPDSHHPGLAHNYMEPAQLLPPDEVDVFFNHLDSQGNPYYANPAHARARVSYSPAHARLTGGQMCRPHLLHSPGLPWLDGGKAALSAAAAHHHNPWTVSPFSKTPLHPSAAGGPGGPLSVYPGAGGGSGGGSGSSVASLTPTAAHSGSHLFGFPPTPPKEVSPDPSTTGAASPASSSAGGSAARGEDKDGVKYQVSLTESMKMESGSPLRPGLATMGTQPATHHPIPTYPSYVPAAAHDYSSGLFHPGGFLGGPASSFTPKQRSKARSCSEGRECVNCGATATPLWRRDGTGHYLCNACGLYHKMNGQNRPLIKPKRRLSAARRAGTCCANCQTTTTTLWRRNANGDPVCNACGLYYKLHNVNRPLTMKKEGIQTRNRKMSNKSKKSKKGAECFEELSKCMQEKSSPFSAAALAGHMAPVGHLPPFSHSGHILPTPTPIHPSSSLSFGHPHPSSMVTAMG
UniProt Q9H165: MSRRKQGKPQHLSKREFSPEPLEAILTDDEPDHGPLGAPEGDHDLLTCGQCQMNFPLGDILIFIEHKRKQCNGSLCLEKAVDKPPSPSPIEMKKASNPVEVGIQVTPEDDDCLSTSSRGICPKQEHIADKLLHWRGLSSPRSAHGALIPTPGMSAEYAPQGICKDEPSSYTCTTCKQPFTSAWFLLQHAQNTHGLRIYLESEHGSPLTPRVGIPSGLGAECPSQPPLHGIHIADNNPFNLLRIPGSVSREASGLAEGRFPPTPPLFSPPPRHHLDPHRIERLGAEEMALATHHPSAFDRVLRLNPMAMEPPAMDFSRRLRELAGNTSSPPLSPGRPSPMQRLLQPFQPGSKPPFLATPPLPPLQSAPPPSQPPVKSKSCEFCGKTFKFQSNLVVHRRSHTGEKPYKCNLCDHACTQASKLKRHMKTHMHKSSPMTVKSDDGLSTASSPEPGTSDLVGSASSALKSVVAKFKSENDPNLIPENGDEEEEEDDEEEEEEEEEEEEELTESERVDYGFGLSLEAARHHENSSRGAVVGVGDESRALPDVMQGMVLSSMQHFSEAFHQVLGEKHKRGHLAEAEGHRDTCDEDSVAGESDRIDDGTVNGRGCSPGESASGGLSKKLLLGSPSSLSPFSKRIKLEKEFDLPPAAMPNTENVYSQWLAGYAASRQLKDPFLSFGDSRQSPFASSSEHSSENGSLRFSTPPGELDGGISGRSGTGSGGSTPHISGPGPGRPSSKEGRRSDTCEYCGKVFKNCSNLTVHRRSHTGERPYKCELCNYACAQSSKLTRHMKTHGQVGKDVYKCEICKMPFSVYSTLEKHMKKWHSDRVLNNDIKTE
UniProt P23511: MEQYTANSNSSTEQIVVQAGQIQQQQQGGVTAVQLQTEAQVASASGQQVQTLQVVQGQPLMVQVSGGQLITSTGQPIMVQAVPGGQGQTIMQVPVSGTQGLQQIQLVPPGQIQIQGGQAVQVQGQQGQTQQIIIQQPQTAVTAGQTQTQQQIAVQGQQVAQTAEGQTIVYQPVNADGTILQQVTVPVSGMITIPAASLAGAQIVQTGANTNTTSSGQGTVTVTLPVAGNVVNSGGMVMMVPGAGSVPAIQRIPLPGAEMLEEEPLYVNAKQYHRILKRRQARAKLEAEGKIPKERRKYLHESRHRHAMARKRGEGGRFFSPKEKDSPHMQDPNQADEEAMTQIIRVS
UniProt Q92793: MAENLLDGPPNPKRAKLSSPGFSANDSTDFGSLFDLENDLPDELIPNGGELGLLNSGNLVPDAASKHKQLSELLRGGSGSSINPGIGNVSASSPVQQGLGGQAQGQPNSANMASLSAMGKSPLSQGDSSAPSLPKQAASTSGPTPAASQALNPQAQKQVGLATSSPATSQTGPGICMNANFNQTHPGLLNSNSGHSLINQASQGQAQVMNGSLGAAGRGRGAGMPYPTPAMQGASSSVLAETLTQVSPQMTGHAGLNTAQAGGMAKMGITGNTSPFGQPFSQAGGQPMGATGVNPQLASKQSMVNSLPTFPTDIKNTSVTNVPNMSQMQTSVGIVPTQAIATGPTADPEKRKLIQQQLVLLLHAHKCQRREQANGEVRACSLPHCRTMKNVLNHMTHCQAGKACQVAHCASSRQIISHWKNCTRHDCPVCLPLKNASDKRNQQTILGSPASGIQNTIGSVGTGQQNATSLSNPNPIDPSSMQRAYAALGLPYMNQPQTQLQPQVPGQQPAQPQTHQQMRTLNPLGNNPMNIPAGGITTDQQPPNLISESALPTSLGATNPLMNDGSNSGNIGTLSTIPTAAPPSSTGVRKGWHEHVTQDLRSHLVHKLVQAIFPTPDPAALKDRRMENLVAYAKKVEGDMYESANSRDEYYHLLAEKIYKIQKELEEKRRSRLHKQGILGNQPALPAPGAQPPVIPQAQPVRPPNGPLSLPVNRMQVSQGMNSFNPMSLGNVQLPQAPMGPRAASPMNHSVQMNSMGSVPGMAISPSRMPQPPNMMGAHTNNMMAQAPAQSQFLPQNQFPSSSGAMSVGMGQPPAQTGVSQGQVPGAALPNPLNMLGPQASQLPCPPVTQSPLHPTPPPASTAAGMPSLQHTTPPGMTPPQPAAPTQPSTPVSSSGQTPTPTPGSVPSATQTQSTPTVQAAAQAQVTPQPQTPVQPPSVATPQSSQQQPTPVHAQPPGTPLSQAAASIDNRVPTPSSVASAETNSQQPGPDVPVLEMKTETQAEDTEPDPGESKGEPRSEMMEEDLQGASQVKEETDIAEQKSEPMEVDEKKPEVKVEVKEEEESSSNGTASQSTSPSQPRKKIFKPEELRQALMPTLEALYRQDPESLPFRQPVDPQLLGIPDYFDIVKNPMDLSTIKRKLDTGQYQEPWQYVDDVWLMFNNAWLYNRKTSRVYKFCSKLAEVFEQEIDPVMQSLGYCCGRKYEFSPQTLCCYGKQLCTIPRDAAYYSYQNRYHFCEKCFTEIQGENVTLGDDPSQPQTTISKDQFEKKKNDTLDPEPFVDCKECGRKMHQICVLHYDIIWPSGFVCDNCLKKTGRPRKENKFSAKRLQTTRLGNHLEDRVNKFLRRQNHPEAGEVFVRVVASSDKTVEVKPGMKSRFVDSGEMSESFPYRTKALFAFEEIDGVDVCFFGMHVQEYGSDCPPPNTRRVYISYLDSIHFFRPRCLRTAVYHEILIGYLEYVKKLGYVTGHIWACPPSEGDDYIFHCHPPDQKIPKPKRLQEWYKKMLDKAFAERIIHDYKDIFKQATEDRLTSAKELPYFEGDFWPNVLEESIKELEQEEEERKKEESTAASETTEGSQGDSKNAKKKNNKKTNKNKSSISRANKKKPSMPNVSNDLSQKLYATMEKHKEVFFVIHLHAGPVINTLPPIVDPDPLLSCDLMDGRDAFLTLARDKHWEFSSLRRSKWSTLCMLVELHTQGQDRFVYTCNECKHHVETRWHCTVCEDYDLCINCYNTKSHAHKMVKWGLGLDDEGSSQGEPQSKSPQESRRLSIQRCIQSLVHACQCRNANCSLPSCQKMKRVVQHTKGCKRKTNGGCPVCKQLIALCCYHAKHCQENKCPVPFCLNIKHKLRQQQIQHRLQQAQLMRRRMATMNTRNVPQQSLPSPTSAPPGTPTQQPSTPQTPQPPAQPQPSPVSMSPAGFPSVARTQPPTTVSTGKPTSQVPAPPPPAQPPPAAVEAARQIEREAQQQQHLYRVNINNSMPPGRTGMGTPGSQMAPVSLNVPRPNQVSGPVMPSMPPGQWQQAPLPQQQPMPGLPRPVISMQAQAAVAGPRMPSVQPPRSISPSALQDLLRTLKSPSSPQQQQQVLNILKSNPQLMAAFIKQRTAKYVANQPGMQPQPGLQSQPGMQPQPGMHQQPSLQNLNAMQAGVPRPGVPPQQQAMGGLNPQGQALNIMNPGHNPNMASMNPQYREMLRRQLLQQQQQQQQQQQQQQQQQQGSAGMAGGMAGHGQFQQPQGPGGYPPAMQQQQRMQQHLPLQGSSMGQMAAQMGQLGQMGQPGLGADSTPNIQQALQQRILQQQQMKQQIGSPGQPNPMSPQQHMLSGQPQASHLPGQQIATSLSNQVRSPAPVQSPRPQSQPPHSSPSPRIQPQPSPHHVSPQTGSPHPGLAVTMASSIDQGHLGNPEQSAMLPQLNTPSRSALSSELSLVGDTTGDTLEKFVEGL
UniProt P15976: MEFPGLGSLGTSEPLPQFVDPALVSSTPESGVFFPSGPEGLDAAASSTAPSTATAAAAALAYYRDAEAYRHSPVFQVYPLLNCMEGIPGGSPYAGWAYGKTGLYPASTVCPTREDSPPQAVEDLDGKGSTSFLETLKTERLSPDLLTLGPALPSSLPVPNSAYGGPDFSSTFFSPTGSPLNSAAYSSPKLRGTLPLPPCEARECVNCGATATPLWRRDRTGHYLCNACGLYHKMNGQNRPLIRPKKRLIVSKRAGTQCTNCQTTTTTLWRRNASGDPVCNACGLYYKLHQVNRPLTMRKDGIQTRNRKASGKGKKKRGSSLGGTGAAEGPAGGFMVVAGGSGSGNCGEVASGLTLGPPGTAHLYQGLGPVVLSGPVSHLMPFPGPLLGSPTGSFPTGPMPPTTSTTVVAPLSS
UniProt Q13547: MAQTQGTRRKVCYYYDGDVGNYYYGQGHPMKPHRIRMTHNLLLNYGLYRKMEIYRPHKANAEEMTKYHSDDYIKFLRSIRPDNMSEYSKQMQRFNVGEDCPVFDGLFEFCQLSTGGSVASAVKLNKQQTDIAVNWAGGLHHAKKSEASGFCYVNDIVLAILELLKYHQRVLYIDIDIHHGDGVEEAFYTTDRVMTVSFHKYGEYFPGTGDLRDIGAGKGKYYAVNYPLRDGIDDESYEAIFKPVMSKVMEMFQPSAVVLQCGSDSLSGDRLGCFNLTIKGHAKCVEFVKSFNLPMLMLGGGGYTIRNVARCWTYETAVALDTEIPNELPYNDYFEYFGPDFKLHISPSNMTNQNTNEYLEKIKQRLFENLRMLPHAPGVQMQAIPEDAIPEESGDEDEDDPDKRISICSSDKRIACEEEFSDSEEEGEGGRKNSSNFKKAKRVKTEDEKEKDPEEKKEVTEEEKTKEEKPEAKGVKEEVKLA
UniProt P20226: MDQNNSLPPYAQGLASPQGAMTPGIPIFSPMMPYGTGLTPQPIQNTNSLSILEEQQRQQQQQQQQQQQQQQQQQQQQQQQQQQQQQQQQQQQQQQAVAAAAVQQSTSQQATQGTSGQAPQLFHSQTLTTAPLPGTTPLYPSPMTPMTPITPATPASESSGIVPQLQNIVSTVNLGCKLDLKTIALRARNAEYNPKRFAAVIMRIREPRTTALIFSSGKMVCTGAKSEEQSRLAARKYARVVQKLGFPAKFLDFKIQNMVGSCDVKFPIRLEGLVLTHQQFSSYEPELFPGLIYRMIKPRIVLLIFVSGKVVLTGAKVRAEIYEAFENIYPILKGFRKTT

Experiments:
[1] = molecular target: tagged GATA-2 expressed from a plasmid transfected into K562 cells (UniProt P23769); test: co-IP; in vivo co-IP: NF-YA, GATA-2, GATA-1 and BCL-XL expressed with different tags from plasmids separately transfected into K562 cells; pulled down by antibodies to the tags; associated proteins detected by Western blot
[2] = molecular target: tagged BCL11A-XL expressed from a plasmid transfected into K562 cells (UniProt Q9H165); test: as above
[3] = molecular target: tagged NF-YA expressed from a plasmid transfected into K562 cells (UniProt P23511); test: as above
[4] = molecular target: tagged BCL11A isolated from transfected cells for the in vitro co-IP (UniProt Q9H165); test: co-IP; in vitro co-IP of individual pairs of differently tagged proteins expressed in and isolated from K562 and/or 293 cells; both purified

CBP of K562 cells (from UniProt Q92793 1-2442)
binding [1]: binds
binding [2]: no binding
binding [3]: binds

GATA-2 of K562 cells (from UniProt P23769 1-480)
binding [3]: binds

GATA-1 of K562 cells (from UniProt P15976 1-413)
binding [1]: binds

HDAC1 of K562 cells (from UniProt Q13547 1-482)
binding [2]: binds
binding [3]: no binding

TBP of K562 cells (from UniProt P20226 1-339)
binding [1]: binds
binding [3]: binds

tagged GATA-1 isolated from transfected cells for the in vitro co-IP (from UniProt P15976 1-413)
binding [4]: binds
